# Among all 310,000 compounds or so, about 14,000 (4.5%) showed an effect of 50% or more. Effects have a minus sign here. This is one part of the list.
# Target: human ether-à-go-go-related gene (hERG) potassium channel (human, UniProt Q12809)
# Test: primary screen, population patch clamp on CHO cells stably expressing hERG
# 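Further: peak tail current of the secondary pulse compared with the same well before compound.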
# Chain of human ether-à-go-go-related gene (hERG) potassium channel (Q12809 whole entry, looked up): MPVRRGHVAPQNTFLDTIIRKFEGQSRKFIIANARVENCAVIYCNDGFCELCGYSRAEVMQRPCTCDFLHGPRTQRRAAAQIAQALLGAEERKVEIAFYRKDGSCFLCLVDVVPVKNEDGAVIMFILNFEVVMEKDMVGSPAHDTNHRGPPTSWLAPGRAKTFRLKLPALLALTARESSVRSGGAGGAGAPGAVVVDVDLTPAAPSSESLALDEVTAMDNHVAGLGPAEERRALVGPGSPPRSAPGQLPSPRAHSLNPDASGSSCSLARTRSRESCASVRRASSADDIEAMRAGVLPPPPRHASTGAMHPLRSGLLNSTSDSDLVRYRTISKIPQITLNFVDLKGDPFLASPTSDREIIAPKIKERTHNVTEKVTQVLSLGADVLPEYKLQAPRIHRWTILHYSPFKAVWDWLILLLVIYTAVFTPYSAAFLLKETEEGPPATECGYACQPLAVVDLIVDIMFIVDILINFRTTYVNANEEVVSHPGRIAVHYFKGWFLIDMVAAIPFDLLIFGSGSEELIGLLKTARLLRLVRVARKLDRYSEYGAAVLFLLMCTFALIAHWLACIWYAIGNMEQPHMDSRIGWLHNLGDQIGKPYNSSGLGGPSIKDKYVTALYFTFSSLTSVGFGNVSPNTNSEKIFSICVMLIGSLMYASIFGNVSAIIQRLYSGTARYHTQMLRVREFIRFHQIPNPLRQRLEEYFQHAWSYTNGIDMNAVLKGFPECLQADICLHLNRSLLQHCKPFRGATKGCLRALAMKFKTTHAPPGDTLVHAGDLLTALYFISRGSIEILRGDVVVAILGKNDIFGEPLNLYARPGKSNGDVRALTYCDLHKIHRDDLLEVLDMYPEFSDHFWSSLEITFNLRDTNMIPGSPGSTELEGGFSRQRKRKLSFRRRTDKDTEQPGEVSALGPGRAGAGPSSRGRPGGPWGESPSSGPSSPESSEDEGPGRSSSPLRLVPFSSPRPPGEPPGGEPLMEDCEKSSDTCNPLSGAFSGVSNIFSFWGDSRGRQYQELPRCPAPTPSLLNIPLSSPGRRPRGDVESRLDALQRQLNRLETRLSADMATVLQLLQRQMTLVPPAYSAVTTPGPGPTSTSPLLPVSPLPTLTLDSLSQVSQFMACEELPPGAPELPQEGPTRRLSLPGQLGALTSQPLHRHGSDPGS
row,Compound,"hERG current change (%, negative = inhibition) at 10uM [%]"
1,CCN1CCC2(CC1)N=C(c1ccc(F)cc1)C(=S)N2C(=O)c1ccc(C(C)(C)C)cc1,-10.8
2,COCCNC(=O)C(c1ccc(F)cc1)N(C(=O)CCC(=O)Nc1ccccn1)C1CCCCC1 (stereo not drawn),13.2
3,O=C1c2ccccc2C(=O)C1(CO)c1ccc(OC(F)F)cc1,18.3
4,O=C(O)c1ccccc1Nc1ccc([N+](=O)[O-])c2nonc12,5.49
5,C#CCOc1ccccc1CNC1CCN(Cc2ccccc2)CC1.O=C(O)C(=O)O,-29.3
6,Cc1cc(C(=O)OCc2nnc(-c3ccccc3)o2)c(C)n1-c1ccccc1,-36.1
7,Cc1ccccc1CNS(=O)(=O)c1ccccc1[N+](=O)[O-],-11.2
8,COc1ccc(NC(=O)C2CCCN(S(=O)(=O)c3cccnc3)C2)c(OC)c1 (stereo not drawn),-0.765
9,COc1ccc(N=CC2=C(Nc3ccc(OC)cc3)c3c(C)nn(-c4ccccn4)c3CC2)cc1,-16.4
10,O=C(NCc1c(Cl)cccc1Oc1ccccc1)c1ccccc1,11
11,Cc1nc(S/C(=C/c2ccc(-c3ccc(Cl)cc3)o2)C(=O)O)n[nH]1,7.5
12,CCC1CCC/C1=N\NC(=O)c1ccoc1C (stereo not drawn),24.9
13,COc1cccc(NC(=O)c2sc3ncn(CC(=O)N4CCN(c5ccccn5)CC4)c(=O)c3c2C)c1,-0.877
14,Cc1ccc(S(=O)(=O)N(CC(O)CN(C)C)c2ccccc2)cc1.Cl (stereo not drawn),-65.6
15,O=C(c1cccs1)N1CCN(S(=O)(=O)Cc2ccccc2)CC1,14.6
16,O=C(O)CCNC(=O)/C(=C/c1ccco1)NC(=O)c1ccco1,19.3
17,COC/C=C/C1=CC2=CC(=O)C(C)(OC(=O)c3cnc4ccccc4n3)C(=O)C2=CN1Cc1ccco1 (stereo not drawn),0.0609
18,COc1ccc(Cl)cc1NC(=O)CCS(=O)(=O)c1ccc(Br)cc1,3.8
19,Cc1ccc(S(=O)(=O)N2CCN(C(=S)NCC3CCCO3)CC2)cc1 (stereo not drawn),-17.8
20,O=C(CSc1ccc(-c2ccc(F)cc2)nn1)NCCc1ccccc1,15.2
21,OCCn1c(CSc2nc3ccccc3n2CCO)nc2ccccc21,-11.9

row,Compound,"hERG current change (%, negative = inhibition) at 10uM [%]"
1,NC(=O)c1cccn(Cc2ccc(C(F)(F)F)cc2)c1=O,2.36
2,Cc1ccc(-c2cc(C(=O)NC3=NCCS3)c3ccccc3n2)cc1C,28.7
3,Nc1nc(-c2ccc(Cl)cc2)c(S(=O)(=O)c2ccccc2)s1,10.7
4,COc1ccc(S(=O)(=O)Nc2ccc(N3CCOCC3)cc2)cc1Br,-3.96
5,CC(C)(C)c1ccc(C(=O)CCC(=O)OCC(=O)NCCc2ccc(S(N)(=O)=O)cc2)cc1,-39.4
6,CS(=O)(=O)N(CC(=O)N1CCCC1)c1ccc(Cl)cc1,3.42
7,COCCNC(=O)CCC1CCN(Cc2cccc(-c3ccc(C)o3)c2)CC1,-25.3
8,CC(=O)Nc1ccc(NC(=O)COc2ccc([N+](=O)[O-])cc2)cc1,18.8
9,CCOc1cccc(NC(=O)C2CC(=O)N(C)C(=Nc3cccc(F)c3)S2)c1 (stereo not drawn),-13.4
10,Cc1onc(-c2c(F)cccc2Cl)c1C(=O)Nc1c(C)n(C)n(-c2ccccc2)c1=O,0.00478
11,CCCCC(CC)C1OCC(C[N+]2(C)CCOCC2)O1 (stereo not drawn),9.82
12,CCOC(=O)c1nnn2c1nc(N1CCN(C)CC1)c1ccccc12,-4.25
13,CC1CCCC(C)N1/N=C/c1cc(Br)cc(Br)c1O (stereo not drawn),10.1
14,NC(=S)c1ncc(C(F)(F)F)cc1Cl,14.2
15,Cc1ccc(C2(CCNCc3ccco3)CCOC(C(C)C)C2)cc1 (stereo not drawn),-35.6
16,CC(C)(C)c1ccc(C(=O)NCCc2ccccc2)cc1,17.3
17,O=C(/C=C/c1c(F)cccc1Cl)Nc1nn[nH]n1,28.8
18,O=C(Cn1nnc(-c2ccc(F)cc2)n1)Nc1cccc(S(=O)(=O)N2CCCC2)c1,-40.1
19,COC(=O)CCCC(=O)NCC1(N(C)Cc2ccccc2)Cc2ccccc2C1,-13.9
20,Clc1ccc(-c2nc3ccccn3c2CN2CCSCC2)cc1,-20
21,Nc1ccc(C(=O)c2ccccc2C(=O)O)cc1Cl,0.632
